# Assay results published in the GPR68 mutational scans of Howard et al. (2025).
# B1: GPR68, Q15743 (parent)
# chain: MGNITADNSSMSCTIDHTIHQTLAPVVYVTVLVVGFPANCLSLYFGYLQIKARNELGVYLCNLTVADLFYICSLPFWLQYVLQHDNWSHGDLSCQVCGILLYENIYISVGFLCCISVDRYLAVAHPFRFHQFRTLKAAVGVSVVIWAKELLTSIYFLMHEEVIEDENQHRVCFEHYPIQAWQRAINYYRFLVGFLFPICLLLASYQGILRAVRRSHGTQKSRKDQIQRLVLSTVVIFLACFLPYHVLLLVRSVWEASCDFAKGVFNAYHFSLLLTSFNCVADPVLYCFVSETTHRDLARLRGACLAFLTCSRTGRAREAYPLGAPEASGKSGAQGEEPELLTKLHPAFQTPNSPGSGGFPTGRLA
# Assays:
# [1] = variants of: B1; assay: cAMP reporter score (Enrich2 score, wild type = 0); higher = more signal; HEK293T, FACS bins
# [2] = variants of: B1; assay: surface expression score (Enrich2 score, wild type = 0); higher = more signal; HEK293T, FACS bins
Variant,cAMP reporter score ([1]; pH 5.5),cAMP reporter score ([1]; pH 6),"cAMP reporter score ([1]; pH 6, modulator: ogerin)","cAMP reporter score ([1]; pH 6.5, modulator: ogerin)",surface expression score [2]
Y44H,-0.402,-0.918,-1.88,-0.519,-2.82
Y44I,-0.152,-0.4,0.098,0.222,–
Y44K,-0.438,-1.25,-1.17,-1.8,-1.92
Y44L,-0.928,-0.311,-1.16,-0.641,-1.94
Y44M,-0.218,-0.983,-0.088,-0.971,-1.33
Y44N,-1.36,–,-2.52,-1.49,-1.8
Y44P,-1.28,-1.2,-2.05,-1.51,-1.98
Y44Q,-1.67,-0.452,-1.44,-1.49,-2.58
Y44R,-1.58,–,-0.908,-0.714,–
Y44S,-0.397,–,-1.08,-1.16,-1.5
Y44T,-0.642,-0.378,-0.618,-0.799,-2.19
Y44V,-0.716,0.556,-0.887,-0.478,-1.65
Y44W,-1.07,-0.549,-1.32,-0.804,-2.79
Y44_F45del,-1.17,-1.37,-1.62,-0.922,-2.63
Y44del,-1.56,-1.32,-2.34,-1.3,-1.55
F45_G46insG,-0.12,–,-1.24,–,-2.51

Variant,cAMP reporter score ([1]; pH 5.5),cAMP reporter score ([1]; pH 6),"cAMP reporter score ([1]; pH 6, modulator: ogerin)","cAMP reporter score ([1]; pH 6.5, modulator: ogerin)",surface expression score [2]
F45del,-0.845,-0.745,-1.84,-1.2,-2.35
G46_Y47insG,-1.02,-0.291,-0.532,0.595,-2.11
G46_Y47insGS,-1.73,-0.745,–,-1.24,-3.04
G46del,-0.757,-1.3,-1.26,-0.014,-1.96
Y47A,0.121,-0.008,-0.122,-0.011,–
Y47C,-0.472,-0.28,-0.291,-0.568,-0.847
Y47D,-1.21,-0.777,-1.27,-0.915,-3.32
Y47E,-1.59,-1.17,-1.38,-1,-2.17
Y47G,-0.442,-0.351,-0.871,-1.31,-1.92
Y47H,-0.424,-0.75,-1.13,-1.19,-1.22
Y47I,1.21,1.35,1.47,2.04,0.992
Y47K,-1.47,-1.44,–,-1.96,-3.63
Y47L,0.48,0.3,1.11,0.662,-0.297
Y47M,0.343,0.125,0.658,0.218,-0.686
Y47N,-1.12,-1.69,-0.506,-1.91,-2.74
Y47P,-1.53,-1.58,-0.772,-1.17,-2.01

# The least precise scores are not listed. Two further conditions of the source, in which the scores hardly spread, are not listed. In variant names, del marks residues removed and ins residues inserted between the two positions. For part of these data: The data file names ogerin without a concentration.
